Data as given in the supplement of paper PMC10126150.
Sequences with one replicate were seen in a single cluster, so their values are uncertain.

Test system: ATP
Assay: switch fluorescence ratio, 500 uM ATP over buffer (Cy3 cluster intensity, sum of 5 cycles each) (fold (ratio)); higher = stronger signal-on switching upon ATP binding; sequences stand for … in TCGTCGGCAGCGTCAGATGTGTATAAGAGACAGTTTTTTTTTTTTTTTTTTTTTTTTT…TC
Details: aptamer strand: ATP DNA aptamer (quencher-CACCTGGGGGAGTATTGCGGAGGAAGG + anchor), 100 nM annealed; ATP concentration: 500 uM; one replicate
In short: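 Per cluster, summed Cy3 intensity from the target cycles was divided by that from the buffer cycles to give the fluorescence ratio, then averaged per switch-domain sequence. Clusters outside 100-1000 RFU were excluded. The Cy3-labelled switching-strand clusters, on a modified Illumina MiSeq flow-cell, were annealed to 100 nM quencher-labelled ATP aptamer and imaged in selection buffer, then after 15 min with 500 uM ATP at 22 °C, for five cycles with NaOH stripping and re-annealing between them.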
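Note: ATP exposure 15 min at 22 °C before imaging.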

Sequence	switch fluorescence ratio
GAGAAACGAC	1
GATACCTCGG	0.978
AAGAGGGACA	1.04
CCAAAAACGT	1.05
CGGAAGAGGA	0.983
CACGCCTTCC	1.44
CGAATCCAAA	1.05
TAAGCTAGAT	1.01
CGGCTTAAAT	0.972
CGGTGACCCT	1.03
GAGTTTGCAG	0.982
ACTAGGCAGG	1.09
ATACCCAGGC	1.43
TAGATGGGC	1.02
CTGGGGATTC	1.01
CCTCACGGTG	3.39
GGTAGTAGGT	0.99
CTGGGAGTTG	1
GAACTTGAGG	0.995
ACGTAACGCA	1.4
CCACGGGCAC	1.5
AGCCGGTGGC	0.963
TCGAAACAAT	1.1
AGCCGCGGAC	2.04
CGGGCAAAGC	1.53
AGCAGAAGCT	1.03

Sequence	switch fluorescence ratio
AACAACAAAT	1.03
CATCGCCGC	1.12
TATATTACGG	1.06
CGTAAAGTCG	1.11
AGAACGGCTG	1.02
TATGATGCCG	0.967
TGGCATAGCC	0.997
GGTAGAGGCG	1.01
CATTGGCTAC	2.15
CCCTAACACA	1.03
CAGACTAAGG	1
CTTTTGTCG	1.03
CGAGACCCGT	0.955
TCGCTAAATT	0.999
ATATATAGAG	0.912
GCCATTGG	0.977
TGCCTTAGTG	0.996
TAAATGGCGG	0.971
CTTGTTACG	1.05
ACCACAACCT	1.65
CGCAGGAATA	1.57
AGGCCTTTGC	1.01
TCTTAACGTT	0.968
GGGGGAGCTC	1.05
AAGGATGCTT	1.04
TTTATTAAGC	0.984

Sequence	switch fluorescence ratio
ACAATTGTGG	0.986
TGGTGCATG	1.05
GGGCGGGGAG	1.02
GGACGGTGGA	1.02
TGAAGCACAT	1.45
TAAAACAATG	1.01
CGATTTGTTC	0.995
ACTCTCTTCT	1.05
TGACGTGGCA	1.02
GGATAGATG	1.03
CTGTGGGATC	1.08
CTGAGCATG	1.39
CCATTACGTA	1.16
GAGAACTCG	0.966
AGTACGTTTT	0.968
CCAGTTGCTC	1.04
GATTGACTGG	0.988
AGCGTGCCGA	1.04
AAGCTTGTG	0.99
TATTGACATC	1.05
TTACTCCTCT	1.12
GTACTTAGTG	1.1
CGCAGGTATT	1.07
AGCATGTCAA	1.01
TGGGTTGGT	1.02
AGGCTGAGTT	1.04

Sequence	switch fluorescence ratio
TTTGGCATAT	1.07
TCAGTATCCA	0.926
ACCTTAAGCC	1.1
ACGGCCGGTA	0.972
TTAGCATGTG	1.14
AGAGATTTTG	1.05
CGAGGGAGA	0.981
AGTTCTCTCG	1.05
AAGTGTTGGA	1.03
TGCTTGGCTG	0.975
GGAGACGTAT	1.06
TTTGCCGTA	0.978
GGATCACCAA	1.02
GCATGTATCC	1.09
GTATGAGAT	0.99
ATCCAGCCTG	0.973
CTCCGGAGGG	1.17
TTCAAGACAG	1.01
CAAAGTCTCG	1.04
CTTTTACAAT	0.994
AGAGAATAGG	0.998
CCCCCTGCTT	1.43
AATGGGGCTC	1.02
TGGGAGGTGA	1
GCGTGATCC	1.06
TTAGGTTAC	1.02

Sequence	switch fluorescence ratio
CAGACAGGGC	1.06
GGAATAGCCT	1.05
ATCTACCTGG	1.07
CGGCCGGA	0.989
TGATTTCGTG	0.962
GAAACTGGGA	0.983
CGAGTGTTTC	0.992
GAATGCGGTC	1.03
GATTACGATA	1.13
ATTATCGGTT	1
CGGGGCAGTT	1.03
GTATGTCGTG	0.995
CCGATAGGA	0.984
ATAACATTCC	2.14
TCTCCTGAGG	1.01
GATCGTGTCG	0.988
ACACTAGAGG	1.06
GCGCTTCTGA	1.04
CCTATGTGGT	1
AAAGTAAGAA	0.985
TTGCCCCGT	0.968
ATTGTCCGGC	1.06
AATGGGGA	0.974
AAAATTACGC	1.03
ATCATCAGGC	1
AACGGAGTTG	0.978

Sequence	switch fluorescence ratio
CAATAGTTAC	1.08
ACCAAACGCG	1.47
ACTGGGGGG	1
TATGGGCGAA	0.971
AGCCGTCTAT	1.03
TGAGCATATA	1.42
TAGATCAGCC	0.993
AAATGGTGCT	1.05
CTCGACTATC	1.15
TCAGGAGTAG	1.04
AGCGGCGTCA	1.04
AGAAGCATCA	0.978
GTTTACGTGC	1.05
TCCATAGGGT	0.963
TTGCATGGAG	1.01
TGGCCGTATG	0.989
ATGAGTCCGA	1.21
TTTACTATCG	0.998
ATAGCGCCAT	0.992
GCCTTTGCCT	0.991
GAGCGTCTTG	0.958
ACAGCGAGAG	1.06
CGGAAGGAGG	1.03
GCAGCACACA	1.34
